From the BET-seq Pho4 binding data (Le et al. 2018) come the findings set out here.

The other results are listed elsewhere or left out. The energies were worked out here from pooled read counts, against the library average; single values are noisy.

For this experiment, the target named is T1, Pho4 (S. cerevisiae) (UniProt P07270).
T1 sequence: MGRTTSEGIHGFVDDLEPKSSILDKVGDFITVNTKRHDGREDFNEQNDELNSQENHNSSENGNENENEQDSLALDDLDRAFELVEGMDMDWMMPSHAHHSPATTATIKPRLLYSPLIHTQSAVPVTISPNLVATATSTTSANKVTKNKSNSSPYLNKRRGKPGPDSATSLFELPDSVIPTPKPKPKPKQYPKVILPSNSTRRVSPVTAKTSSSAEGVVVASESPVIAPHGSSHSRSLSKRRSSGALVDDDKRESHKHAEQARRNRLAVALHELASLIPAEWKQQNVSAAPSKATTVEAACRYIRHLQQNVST
The experiment can be described thus: relative binding free energy (BET-seq); higher = weaker binding. Particulars: reference: library average.
For the sequence GTATGCACGTGACGGG, the “relative binding free energy” value is 0.06 kcal/mol.
For the sequence TGCATCACGTGAGTCG, the “relative binding free energy” value was 0.4 kcal/mol.
With GGGTACACGTGATAGG, the “relative binding free energy” value came out at 0.16 kcal/mol.
Regarding TTATGCACGTGATTGC, the “relative binding free energy” value was determined as 0.2 kcal/mol.
On to TGGAGCACGTGCTGGG, for which the “relative binding free energy” value is -0.21 kcal/mol.
In the case of GGACACACGTGGGGTT, the “relative binding free energy” value is -0.15 kcal/mol.
Turning to TCGGCCACGTGTAGGT, the “relative binding free energy” value came to 0.02 kcal/mol.
In the case of GTTGGCACGTGGTGGA, the “relative binding free energy” value is -0.04 kcal/mol.
Take GGTGACACGTGATGTG: the “relative binding free energy” value was 0.12 kcal/mol.
As to TTTATCACGTGATTGA, the “relative binding free energy” value is 0.26 kcal/mol.
In the case of GCGGCCACGTGGTAGG, the “relative binding free energy” value was -0.11 kcal/mol.
For the sequence GGGGCCACGTGTACAG, the “relative binding free energy” value was 0.13 kcal/mol.
AAAGACACGTGTTTGG: the “relative binding free energy” value was 0.04 kcal/mol.
As to CATAACACGTGTAGGT, the “relative binding free energy” value came to 0.03 kcal/mol.
Consider AGTTGCACGTGGCTGG, for which the “relative binding free energy” value was found to be 0 kcal/mol.
Regarding AATAGCACGTGATTTT, the “relative binding free energy” value worked out at 0.15 kcal/mol.
On to TAGGCCACGTGTGGCG, for which the “relative binding free energy” value was -0.01 kcal/mol.
Take CTATTCACGTGTTGGT: the “relative binding free energy” value is 0.24 kcal/mol.
Next, GTGGGCACGTGGCAAG: -0.14 kcal/mol; GTTCTCACGTGGGAGG: 0.12 kcal/mol; ATGCTCACGTGATATG: 0.28 kcal/mol.
Turning to TTTTTCACGTGGAGCC, the “relative binding free energy” value was 0.5 kcal/mol.
As to AGGGTCACGTGGGCTT, the “relative binding free energy” value was -0.06 kcal/mol.
As to GTGTGCACGTGTAGTC, the “relative binding free energy” value stood at 0.11 kcal/mol.
GGGTGCACGTGAGGGC: the “relative binding free energy” value is 0.21 kcal/mol.
To GTGTTCACGTGTAAGT belongs 0.37 kcal/mol; to TAGGTCACGTGACGGA, 0.05 kcal/mol.
As for AAATGCACGTGGGGAT, the “relative binding free energy” value was -0.18 kcal/mol.
On to GTTCACACGTGGGGAG, for which the “relative binding free energy” value stood at 0.05 kcal/mol.
Take AAGGTCACGTGTTAGA: the “relative binding free energy” value came out at 0.25 kcal/mol.
Consider TTGTGCACGTGTAGTG, for which the “relative binding free energy” value was -0.02 kcal/mol.
As to ATCGGCACGTGAATGT, the “relative binding free energy” value was 0.14 kcal/mol.
As for GTTTGCACGTGGGTGC, the “relative binding free energy” value stood at 0.03 kcal/mol.
On to AGTCGCACGTGGGGTT, for which the “relative binding free energy” value was -0.29 kcal/mol.
As to TATATCACGTGAAATT, the “relative binding free energy” value was found to be 0.35 kcal/mol.
To AATGTCACGTGGTCAT belongs 0.07 kcal/mol; to TAATGCACGTGTGAAT, 0.12 kcal/mol.
As for CGTTGCACGTGAGTGA, the “relative binding free energy” value was found to be 0.09 kcal/mol.
Regarding CGGGTCACGTGTGCTG, the “relative binding free energy” value was 0.12 kcal/mol.
Consider GGTTTCACGTGACTAG, for which the “relative binding free energy” value amounted to 0.32 kcal/mol.
Regarding TTTGGCACGTGTCCGT, the “relative binding free energy” value is -0.16 kcal/mol.
Turning to AGAGGCACGTGGTGAG, the “relative binding free energy” value was -0.13 kcal/mol.
Consider CGTCGCACGTGGGGGG, for which the “relative binding free energy” value was -0.2 kcal/mol.
To TTTTACACGTGTGGGT belongs 0.23 kcal/mol.
As to CAGGGCACGTGCAGGG, the “relative binding free energy” value was -0.08 kcal/mol.
Next, TCTTACACGTGAGTGG: 0.27 kcal/mol; TAAGGCACGTGGTCGT: -0.19 kcal/mol.
To GGGGGCACGTGAGGGT belongs 0.19 kcal/mol.
Turning to CATTACACGTGGGAGG, the “relative binding free energy” value was -0.08 kcal/mol.
In the case of GAATGCACGTGATATG, the “relative binding free energy” value was 0.04 kcal/mol.
TTGCACACGTGAGTGG: the “relative binding free energy” value turned out to be 0.3 kcal/mol.
TGTGACACGTGGTATA: the “relative binding free energy” value is -0.1 kcal/mol.
As to TAGTACACGTGAGTTA, the “relative binding free energy” value amounted to 0.26 kcal/mol.
As for AGGTTCACGTGCTTTA, the “relative binding free energy” value turned out to be 0.21 kcal/mol.
GGGGGCACGTGTGTCT: the “relative binding free energy” value is -0.06 kcal/mol.
With AAAATCACGTGGTGTC, the “relative binding free energy” value stood at 0.18 kcal/mol.
Regarding GTAGGCACGTGGAGTG, the “relative binding free energy” value was -0.14 kcal/mol.
As for GGAGTCACGTGAATTT, the “relative binding free energy” value stood at 0.29 kcal/mol.
TGGGGCACGTGATGAA: the “relative binding free energy” value is -0.04 kcal/mol.
To TGAACCACGTGTGTTT belongs 0.05 kcal/mol; to ATTCTCACGTGTTAGT, 0.11 kcal/mol; to GGCGCCACGTGAGGGG, 0.18 kcal/mol.
Take TTGGTCACGTGATGTA: the “relative binding free energy” value was 0.22 kcal/mol.
For the sequence AGGGGCACGTGAACAG, the “relative binding free energy” value was 0.1 kcal/mol.
For GGGTACACGTGTTAGG, the “relative binding free energy” value was found to be 0.08 kcal/mol.
For the sequence GTGGGCACGTGCGGCG, the “relative binding free energy” value was -0.18 kcal/mol.
As for ATGGTCACGTGATTCG, the “relative binding free energy” value stood at 0.03 kcal/mol.
For the sequence TCAGTCACGTGATGCG, the “relative binding free energy” value turned out to be 0.16 kcal/mol.
As for TCCGGCACGTGGTGAG, the “relative binding free energy” value is -0.19 kcal/mol.
For CGTTGCACGTGGTATT, the “relative binding free energy” value is -0.01 kcal/mol.
To GGTTGCACGTGACGGT belongs 0.22 kcal/mol; to TGCGACACGTGTGTTT, 0.09 kcal/mol.
Regarding TAGTACACGTGCGTTG, the “relative binding free energy” value turned out to be 0.05 kcal/mol.
Regarding GGATTCACGTGCAGTA, the “relative binding free energy” value is 0.4 kcal/mol.
As for AGTGTCACGTGCTGAA, the “relative binding free energy” value was -0.02 kcal/mol.
As for TTGCGCACGTGGGGGA, the “relative binding free energy” value is -0.27 kcal/mol.
CGGTGCACGTGTGGCT: the “relative binding free energy” value worked out at 0.02 kcal/mol.
As to GAGGCCACGTGTTGGA, the “relative binding free energy” value is -0.03 kcal/mol.
Next, CCGTGCACGTGGGGGG: -0.1 kcal/mol.
Take CAGATCACGTGGGAGT: the “relative binding free energy” value was found to be 0.06 kcal/mol.
On to GATGTCACGTGCGAGT, for which the “relative binding free energy” value was 0.17 kcal/mol.
Next, ATGTTCACGTGTGCAG: 0.25 kcal/mol; ATGTTCACGTGGTCGG: 0.2 kcal/mol; GTTTGCACGTGGAGGA: 0.07 kcal/mol.
With GGAAGCACGTGGGAAG, the “relative binding free energy” value is -0.05 kcal/mol.
For the sequence ATGGCCACGTGGTATT, the “relative binding free energy” value was -0.11 kcal/mol.
Next, ATATGCACGTGAGGCA: 0.11 kcal/mol.
Take TAGGTCACGTGCTGCG: the “relative binding free energy” value was 0.02 kcal/mol.
For TTAAACACGTGTGGAA, the “relative binding free energy” value came to 0.09 kcal/mol.
With GCCGGCACGTGGGGCG, the “relative binding free energy” value was -0.16 kcal/mol.
Regarding GGATGCACGTGAAGGT, the “relative binding free energy” value worked out at 0.16 kcal/mol.
For the sequence TGGATCACGTGGCGTT, the “relative binding free energy” value is 0.04 kcal/mol.
To TATGGCACGTGATGTG belongs 0.01 kcal/mol; to GGTTTCACGTGCATAT, 0.37 kcal/mol; to AGTAGCACGTGTGGCA, -0.1 kcal/mol.
On to TAAGTCACGTGTTTTC, for which the “relative binding free energy” value was found to be 0.09 kcal/mol.
As to TATCGCACGTGTCGTT, the “relative binding free energy” value was determined as 0.01 kcal/mol.
Regarding AACGGCACGTGGGGTT, the “relative binding free energy” value is -0.24 kcal/mol.
For TAGGACACGTGAGTTC, the “relative binding free energy” value is 0.53 kcal/mol.
Next, AGGTTCACGTGGAGTA: 0.27 kcal/mol; TATAGCACGTGATTCG: 0 kcal/mol; GTGGGCACGTGGATAG: -0.01 kcal/mol.
For TAGTGCACGTGGCGGT, the “relative binding free energy” value is -0.05 kcal/mol.
Consider AGGTGCACGTGGTTTG, for which the “relative binding free energy” value is -0.15 kcal/mol.
As for AGGAACACGTGTGCTG, the “relative binding free energy” value was 0.04 kcal/mol.
To AAGGTCACGTGTTCGT belongs 0.09 kcal/mol; to TGCTGCACGTGTATTG, -0.08 kcal/mol; to CTTTTCACGTGTTCGG, 0.15 kcal/mol.
As to ATTTACACGTGGTGAA, the “relative binding free energy” value amounted to 0.05 kcal/mol.
For the sequence TTAGACACGTGGAGAG, the “relative binding free energy” value worked out at 0.19 kcal/mol.
Take CGGTTCACGTGCGGAG: the “relative binding free energy” value was 0.25 kcal/mol.
As for GTTCACACGTGGGTAG, the “relative binding free energy” value is 0.05 kcal/mol.
Next, TGTGGCACGTGGGAAT: -0.03 kcal/mol; AGGTACACGTGGGCTG: -0.16 kcal/mol; TGTTCCACGTGGCATT: 0 kcal/mol.
